Measured values taken from PubChem BioAssay AID894 (National Center for Advancing Translational Sciences (NCATS), 2007).
Out of some 150,000 compounds screened, about 6,500 (4.3%) were called active. The inconclusive results got no clear call from the source; some entries with a clear call stand among them for comparison. Calls come from the whole dose curve; as a rule, active = well fitted inhibition curve with a large enough effect (not every such curve was filed as active); inconclusive = small, poorly fitted or top-dose-only effect, or another doubt; inactive = no such curve, though single readings can be large or run the other way. Potencies of inconclusive entries are left out as doubtful fits.

These compounds were tested against 15-hydroxyprostaglandin dehydrogenase [NAD(+)] (Homo sapiens) (UniProt P15428) (assay: qHTS Assay for Inhibitors of HPGD (15-Hydroxyprostaglandin Dehydrogenase)). Conditions: purified HPGD, NADH fluorescence kinetic, PGE2 substrate; activity change, negative = inhibition: hits give low values.
How it was run: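 20 nM HPGD preincubated 15 min at room temperature with compound in 50 mM Tris-HCl pH 8, 0.01% Tween 20. Started with 1 mM NAD+ and 30 uM prostaglandin E2; NADH fluorescence (360/450 nm) read 5 times over 30-s intervals, last minus first.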
% is set by controls: 0 for no effect and ±100 for the full control effect; potency is the fitted concentration of half-maximal effect; tags give direction and shape of the fitted curve.

Sequence of UniProt P15428 (P15428 whole entry, looked up): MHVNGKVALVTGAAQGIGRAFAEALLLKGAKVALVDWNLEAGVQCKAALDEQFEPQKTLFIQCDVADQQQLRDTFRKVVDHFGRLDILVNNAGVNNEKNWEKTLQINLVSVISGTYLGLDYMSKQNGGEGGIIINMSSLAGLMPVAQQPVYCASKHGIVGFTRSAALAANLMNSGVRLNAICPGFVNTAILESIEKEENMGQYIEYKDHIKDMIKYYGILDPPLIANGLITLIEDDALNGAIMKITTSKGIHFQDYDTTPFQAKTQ

SMILES	Potency	activity change, negative = inhibition
CCOc1cc(/C=C2\SC(=O)N=C2N)ccc1O	inconclusive [inhibitor, single point]	
O=C1CC(O)(C(F)F)Oc2ccc3ccccc3c21 (centres undefined)	inconclusive [inhibitor, partial curve]	
CCCc1cc2c(=O)c(-c3ccccn3)c(C)oc2cc1O	inconclusive [inhibitor, single point]	
COc1cc(/C=C(\C#N)C(=O)c2ccc(O)c(O)c2)cc(I)c1O	active: 17.8 µM	
CNC(=O)c1ccc(-c2ccc(F)cc2)s1	inconclusive [inhibitor, partial curve]	
CC(C)N(C(=O)COC(=O)c1cc(Cl)cc(Cl)c1N)C(C)C	inconclusive [inhibitor, partial curve]	
COc1ccccc1NS(=O)(=O)c1cc(NC(=O)Nc2ccccc2)ccc1N1CCCCC1	active: 25.1 µM	
O=C(COc1ccccc1)NNC(=S)NC(=O)c1ccc(Cl)cc1Cl	active: 35.5 µM	
O=C(Nc1sc2c(c1C(=O)NC1CC1)CCCCCC2)c1ccco1	inconclusive [inhibitor, partial curve]	
CCCNC(=O)Cc1c(O)c2ccccc2[nH]c1=O	inconclusive [inhibitor, single point]	
O=C(O)CCNc1cc2ccccc2cc1C(=O)O	inconclusive [inhibitor, full curve, poor fit]	
CC(=O)Nc1ccc(N/C=C/C(=O)C(C)(C)C)cc1	inconclusive [inhibitor, partial curve]	
Cc1cc(C(=O)OCC(=O)c2ccc(Br)s2)no1	inconclusive [inhibitor, partial curve]	
COc1ccc(CCN2C(=O)CC(Nc3ccc(N4CCOCC4)cc3)C2=O)cc1OC (centres undefined)		inactive: -5.36%
CCCCN1C(=O)/C(=C/C=C2\N(C)c3ccccc3C2(C)C)SC1=S		inactive: -8.62%
Cc1ccc(-c2cc(C(=O)O)c3sc(N4CCCCC4)nc3n2)cc1	inconclusive [inhibitor, partial curve]	
CC12CCC(=O)N1c1c(sc3nc(N4CCOCC4)c4c(c13)CCCC4)C(=O)N2 (centres undefined)	inconclusive [inhibitor, partial curve]	
CCCn1c(SCC(=O)N2CCc3ccccc3C2)nc2c1c(=O)n(C)c(=O)n2C		inactive: -2.28%
CCCN1C2CCCC1CC(NC(=O)Nc1cccc(C(C)=O)c1)C2 (centres undefined)		inactive: 0.0894%
Cc1ccc2c(C)c(C(=O)Nc3nnc(C)s3)oc2c1	inconclusive [inhibitor, single point]	
O=C(CN1CCCC1)Nc1ccc(Oc2ccc(NC(=O)CN3CCCC3)cc2)cc1	active: 25.1 µM	
CCN(CC)CCNC(=O)CCCCn1c(=S)[nH]c2c([nH]c3ccc(OC)cc32)c1=O	inconclusive [inhibitor, partial curve]	
CCn1c2ccccc2c2nc3cc(S(=O)(=O)N4CCOCC4)ccc3nc21	active: 2 µM	
COc1ccc(Cc2nnc(NC(=O)CSc3ccccc3)s2)cc1		inactive: -3.72%
Cc1ccc2nc(-c3ccc(NC(=O)Cc4cccs4)cc3)[nH]c2c1	inconclusive [inhibitor, partial curve]	

SMILES	Potency	activity change, negative = inhibition
CCOc1cc(C(=O)Nc2ccc(N3CCN(S(C)(=O)=O)CC3)cc2)cc(OCC)c1OCC		inactive: 2.49%
Cc1cc(C)c2[nH]c(=O)c(CN(Cc3ccco3)C(=O)c3cccs3)cc2c1	inconclusive [inhibitor, partial curve]	
O=C(Nc1ncccc1O)c1cccc(S(=O)(=O)N2CCc3ccccc32)c1		inactive: -13.9%
CCC(C)NC(=O)COC(=O)c1csc2c1CCCC2 (centres undefined)	active: 25.1 µM	
Cc1oc(C(=O)Nc2ccc(C(=O)O)cc2)cc1COc1ccccc1	active: 20 µM	
CC(=O)Nc1ccc(Nc2c3c4c(cccc4n(C)c2=O)C(=O)c2ccccc2-3)cc1		inactive: -22.7%
N#Cc1cccc(-c2nc(Nc3ccncc3)c3ccccc3n2)c1	inconclusive [inhibitor, partial curve]	
CCc1nnc(NC(=O)CSc2nnc(-c3cccnc3)n2CC)s1		inactive: -8.65%
CC1CCCN(C(=O)C(Cc2ccccc2)n2cccc2)C1 (centres undefined)	active: 14.1 µM	
COCCNc1nnc(SCC(=O)c2ccc3c(c2)OCO3)s1	inconclusive [inhibitor, partial curve]	
C=C(C)COc1ccc(-c2n[nH]c(C)c2-c2ccc(OC)cc2)c(O)c1		inactive: -23.2%
COc1ccc(NC(=O)Cn2c(=O)n(CC(=O)NCc3ccco3)c(=O)c3ccccc32)cc1		inactive: -3.92%
O=C(NCCN1CCc2ccccc2C1)C1CCN(S(=O)(=O)N2CCCCC2)CC1		inactive: -7.63%
Cc1cc2oc(=O)cc(COC(=O)c3n[nH]c4ccccc34)c2cc1C	inconclusive [inhibitor, partial curve]	
COc1ccc(S(=O)(=O)N2CCC(CN3C(=O)c4cccc5cccc(c45)C3=O)CC2)cc1	inconclusive [inhibitor, partial curve]	
CCN(CC)S(=O)(=O)c1ccc(C(=O)NCc2n[nH]c(=S)n2-c2ccccc2OC)cc1		inactive: -13.4%
CC1CCN(C(c2ccc(N(C)C)cc2)c2nnnn2Cc2ccccc2)CC1 (centres undefined)		inactive: -11.9%
COc1ccc(C(=O)c2nc3c(n2O)CCCCC3)cc1	inconclusive [inhibitor, partial curve]	
Cc1ccc(N=C2SC(C(=O)Nc3ccc(OC(F)(F)F)cc3)C(N)=C2C(=O)Nc2c(C)cc(C)cc2C)cc1 (centres undefined)	inconclusive [inhibitor, partial curve]	
Nc1cc(Cl)ccc1C(=O)OCC(=O)NC(=O)NCc1ccccc1	inconclusive [inhibitor, partial curve]	
O=C1c2ccccc2C(=O)N1CCCSc1nc2ccccc2o1	active: 20 µM	
CCOC(=O)N1CCC(n2c(SCC(=O)NCc3ccccc3)nc3ccccc3c2=O)CC1		inactive: 3.13%
O=c1cc(CO)oc(C(Nc2ccccn2)c2cccc(F)c2)c1O (centres undefined)		inactive: -14.4%
CNC(=S)N(Cc1ccco1)Cc1cc2cc3c(cc2[nH]c1=O)OCCO3	inconclusive [inhibitor, single point]	
CN=c1scc(-c2cccs2)n1/N=C/c1ccccc1O	inconclusive [inhibitor, partial curve]	

SMILES	Potency	activity change, negative = inhibition
COc1cc(/C=N/n2cnnc2)ccc1OCC(=O)N1CCOCC1	inconclusive [inhibitor, partial curve]	
Oc1c(Cl)cc(Cl)c(Cl)c1Cl	inconclusive [inhibitor, single point]	
O=C(/C=C/c1cccc([N+](=O)[O-])c1)NCc1ccco1	inconclusive [inhibitor, partial curve]	
CCCNC(=S)N1CCN(CC)CC1		inactive: -6.54%
O=C(N/N=C/c1c[nH]c2ccccc12)c1cc(-c2ccc3ccccc3c2)n[nH]1	inconclusive [inhibitor, partial curve]	
CC(=O)c1cc2cc(O)ccc2o1	inconclusive [inhibitor, full curve]	
O=C(c1ccc(Cl)c([N+](=O)[O-])c1)N(c1ccccn1)c1ccccn1		inactive: -6.42%
COc1ccc(C2C=C(c3ccc(C)cc3)Nc3ncnn32)cc1 (centres undefined)	inconclusive [inhibitor, partial curve]	
CCC(=O)Nc1nnc(SCC(=O)c2ccc3c(c2)Cc2ccccc2-3)s1		inactive: -9.93%
Cn1nc(C(=O)OCCN2C(=O)c3ccccc3C2=O)c2ccccc2c1=O	active: 20 µM	
O=C(O)c1cc(Br)ccc1NN=C1CCCCC1	active: 25.1 µM	
COc1ccc(N2CSC3=C(C#N)C(c4cccs4)CC(=O)N3C2)cc1 (centres undefined)	active: 7.08 µM	
NC(=O)c1cc(N2C(=O)C=CC2=O)ccc1Cl	active: 7.94 µM	
CC(=O)c1ccc(N2CCN(c3ncc(C(F)(F)F)cc3Cl)CC2)cc1	inconclusive [inhibitor, partial curve]	
CN1CCN(c2nc(-c3ccc(N(C)C)cc3)nc3ccccc23)CC1	inconclusive [inhibitor, partial curve]	
CC(C)(C)c1ccc(-c2nc(-c3ccncc3)no2)cc1	inconclusive [inhibitor, partial curve, poor fit]	
Cc1ccc(C(=O)Nc2ccc(Cc3ccncc3)cc2)cc1[N+](=O)[O-]		inactive: 1.18%
COCCCNC(=O)c1cc2c(=O)n3cccc(C)c3nc2n(C(C)C)c1=N	inconclusive [inhibitor, partial curve]	
COc1ccc(C2CC(=O)c3cnc(Nc4cc(C)cc(C)c4)nc3C2)cc1 (centres undefined)	inconclusive [inhibitor, partial curve]	
C[N+]1(CCC(=O)c2ccccc2)CCCCC1	active: 31.6 µM	
CCCCC(c1nnnn1CCOC)N1CCN(C(=O)c2ccco2)CC1 (centres undefined)		inactive: -6.32%
COc1c(C(=O)N2CCCC2)ccc2ccccc12	active: 12.6 µM	
CCOC(=O)/C(N)=C/c1ncc(C(F)(F)F)cc1Cl	inconclusive [inhibitor, single point]	
CCOC(=O)c1c(C)nc2sc3c(=O)[nH]cnc3c2c1-c1ccc(OC)cc1	inconclusive [inhibitor, partial curve]	
